# Laboratory results published in paper PMC4336329 (PLoS ONE, 2015).
# In all, about 310,000 compounds went through this assay and about 2,200 (0.71%) showed an effect of 50% or more. Effects have a minus sign here. The list shows a part of the results.
# Biological target: human ether-à-go-go-related gene (hERG) potassium channel (human, UniProt Q12809)
# Experiment: primary screen, population patch clamp on CHO cells stably expressing hERG
# Sequence of human ether-à-go-go-related gene (hERG) potassium channel (Q12809 whole entry, looked up): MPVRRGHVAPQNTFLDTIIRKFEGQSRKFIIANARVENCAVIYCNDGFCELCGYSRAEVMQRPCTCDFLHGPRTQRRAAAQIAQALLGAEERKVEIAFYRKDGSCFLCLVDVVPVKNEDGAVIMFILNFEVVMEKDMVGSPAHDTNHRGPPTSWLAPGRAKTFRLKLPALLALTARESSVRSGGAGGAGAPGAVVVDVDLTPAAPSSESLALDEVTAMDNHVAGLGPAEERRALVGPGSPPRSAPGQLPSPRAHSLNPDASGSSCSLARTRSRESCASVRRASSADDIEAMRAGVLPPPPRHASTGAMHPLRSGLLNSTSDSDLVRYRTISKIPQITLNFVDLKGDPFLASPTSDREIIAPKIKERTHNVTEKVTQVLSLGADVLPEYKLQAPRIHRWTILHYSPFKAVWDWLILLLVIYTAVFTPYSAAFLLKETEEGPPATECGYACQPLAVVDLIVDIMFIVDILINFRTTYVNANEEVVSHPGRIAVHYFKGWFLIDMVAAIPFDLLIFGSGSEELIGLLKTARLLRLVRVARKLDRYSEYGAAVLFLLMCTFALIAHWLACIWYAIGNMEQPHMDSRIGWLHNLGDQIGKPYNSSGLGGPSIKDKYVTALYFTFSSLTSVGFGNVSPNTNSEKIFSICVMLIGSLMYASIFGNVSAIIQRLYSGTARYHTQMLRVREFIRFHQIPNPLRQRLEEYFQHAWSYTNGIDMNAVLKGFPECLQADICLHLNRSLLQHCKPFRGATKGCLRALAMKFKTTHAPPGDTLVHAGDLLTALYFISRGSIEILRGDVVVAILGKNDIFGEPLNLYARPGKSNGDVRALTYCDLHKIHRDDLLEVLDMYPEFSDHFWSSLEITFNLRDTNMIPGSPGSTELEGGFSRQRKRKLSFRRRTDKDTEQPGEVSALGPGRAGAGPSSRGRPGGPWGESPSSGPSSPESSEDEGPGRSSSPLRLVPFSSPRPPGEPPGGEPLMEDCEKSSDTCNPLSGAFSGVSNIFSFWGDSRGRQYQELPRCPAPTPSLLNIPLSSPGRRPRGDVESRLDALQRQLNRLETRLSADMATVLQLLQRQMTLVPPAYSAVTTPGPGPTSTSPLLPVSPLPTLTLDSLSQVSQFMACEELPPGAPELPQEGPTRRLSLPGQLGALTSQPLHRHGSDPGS
row,Compound,"hERG current change (%, negative = inhibition) at 1uM [%]"
1,CCOc1ccc(N=Nc2c(=O)[nH]n3c(C)cc(C)nc23)cc1,2.58
2,COc1cccc(OC)c1C(=O)N1CCNCC1.O=C(O)C(=O)O,16.7
3,COC(=O)C1=C(C)N(C)C(C)=C(C(=O)OC)C1c1ccccn1,7.24
4,COc1cc(/C=C/C(=O)OCC(=O)N(C)CC(=O)Nc2ccc(F)cc2)ccc1OC(F)F,-24.2
5,Cc1cc(Cl)ccc1OCC(=O)N1CCCCC1,11.1
6,O=C(COC(=O)C1CC1)NC(=O)NCc1ccccc1,6.49
7,CC(C)OC(=O)CSc1nnc(CNc2ccc(Cl)cc2)n1Cc1ccccc1,6.8
8,C/C(=C\c1cc2ccccc2o1)C1Nc2cccc3cccc(c23)N1,16.2
9,Cc1c(Cl)cccc1NC(=O)CNC(=O)Cc1c[nH]c2ccccc12,4
10,O=C(Nc1cccc(Cl)c1)NC1CC2CCC(C1)N2Cc1ccco1 (stereo not drawn),11
11,Cc1nnc(SCC(=O)Nc2cc(S(=O)(=O)N3CCCC3)ccc2Cl)s1,6.9
12,Cc1ccccc1CC(=O)Nc1cccc(S(=O)(=O)N2CCCC2)c1,5.61
13,O=C(O)c1ccc(S(=O)(=O)N(Cc2ccccc2)Cc2ccccc2)cc1,14.8
14,CC(NC(=O)c1ccco1)C(c1cccs1)N1CCN(c2ccccc2)CC1 (stereo not drawn),0.732
15,COc1ccc(-c2nc3ccc(C(=O)NCCCN4CCOCC4)cc3nc2-c2ccc(OC)cc2)cc1,13.9
16,Cl.Clc1ccccc1CSC1=NCCCN1,6.63
17,O=C(O)CCN1C(=O)C2CCCCC2C1=O (stereo not drawn),8.44
18,COc1ccc(C(C)=O)c2c(O)cccc12,-1.46
19,CCC(C)(C(=O)NC1CCCCC1)N(Cc1cccs1)C(=O)c1ccccn1 (stereo not drawn),10.9
20,COc1ccc2oc(C(=O)OCC(=O)Nc3ccccc3OC)c(C)c2c1,8.27
21,CCCc1nc2nc(C)c(NS(=O)(=O)c3ccc(Cl)cc3)c(=O)n2[nH]1,15.2
22,CN1CCN(c2ccc(NC(=O)c3ccccc3)cc2)CC1,11.5
23,CCOC(=O)c1nnc(-c2ccc(C)cc2)nc1N1CCSCC1,0.946

row,Compound,"hERG current change (%, negative = inhibition) at 1uM [%]"
1,CC1CCN(CCCNC(=O)c2ccc3c(=O)n(Cc4ccc(Cl)cc4)c(=S)[nH]c3c2)CC1,-2.68
2,CCOc1ccccc1Nc1cc(C)nc2ccc(C)cc12,-20.5
3,CCCCc1ccc(NC(=S)Nc2ccc(Nc3ccc(OC)cc3)cc2)cc1,10.6
4,Cc1nc([N+](=O)[O-])cn1CCCCN1C(=O)c2ccccc2C1=O,12.2
5,CC(=O)CCC(=O)c1ccc2ccccc2c1,0.236
6,N#CC(C(=O)O)=C1CCCC1,-7.66
7,Cc1cc(C)cc(OCc2ccc(C(=O)N3N=C(C(F)F)CC3(O)C(F)F)o2)c1 (stereo not drawn),-0.0387
8,c1ccc(-c2cc3ncccc3cn2)cc1,15.1
9,Cc1cccc(C(=O)Nc2c3c(nn2C(C)(C)C)CS(=O)(=O)C3)c1,10.2
10,O=C(CC(c1ccccc1)c1cc(Cl)ccc1O)NCCN1CCOCC1 (stereo not drawn),-1.95
11,C=CCn1c(O)c(C(C)=NCc2cc(OC)cc(OC)c2)c(=O)[nH]c1=O,4.32
12,Cc1ccc(CSCC(Nc2ccc(C(=O)O)cc2[N+](=O)[O-])C(=O)O)cc1 (stereo not drawn),4.33
13,Cc1ccc(OS(=O)(=O)c2ccccc2)c(/C=N/N=C2\NC(=O)C(C)S2)c1 (stereo not drawn),6.93
14,CC(C)(C)c1ccc(OCC(O)CN2CCOCC2)cc1 (stereo not drawn),7.24
15,COc1cccc(NC(=O)CCC2CCN(C(=O)C3CC=CCC3)CC2)c1 (stereo not drawn),8.62
16,COc1cc(NC(=O)CSCC(=O)N(C)C2CCCCC2)cc(OC)c1,12.7
17,O=C(Nc1ccccc1F)c1ccc2snnc2c1,13.8
18,CS(=O)(=O)N1CCN(c2cnn(-c3ccccc3)c(=O)c2Cl)CC1,8.33
19,Cc1ccccc1C(=O)Nc1cccc(NC(=S)NC(=O)c2cccs2)c1,11.6
20,Cc1ccc(C(=O)N(CC#N)CC#N)cc1C,5.95
21,O=C(N1CCCCC1)N1CCN(C(c2ccccc2)c2ccccc2)CC1,3.73
22,CCc1ccccc1OCC(=O)Nc1cccc(S(=O)(=O)NCc2ccco2)c1,2.82
